# Measurements from publication PMC6919601, “Identification of Plasmodium dipeptidyl aminopeptidase allosteric inhibitors by high throughput screening” (PLoS ONE, 2019).
# Hit rate of the full screen: of about 110,000 compounds, about 230 (0.21%) showed an effect of 50% or more. The list shows a part of the results.
# Target: DPAP1 (Plasmodium falciparum, UniProt Q8IIJ9)
# Assay: primary screen, percent inhibition; read by cleavage of a fluorogenic dipeptide substrate; higher = more effect of the substance
# Parameters: species or system P. falciparum D10 trophozoite lysates; single well
# 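Note: 30 min substrate incubation versus DMSO and 10 µM JCP410 controls.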
# Chain of DPAP1 (Q8IIJ9 whole entry, looked up): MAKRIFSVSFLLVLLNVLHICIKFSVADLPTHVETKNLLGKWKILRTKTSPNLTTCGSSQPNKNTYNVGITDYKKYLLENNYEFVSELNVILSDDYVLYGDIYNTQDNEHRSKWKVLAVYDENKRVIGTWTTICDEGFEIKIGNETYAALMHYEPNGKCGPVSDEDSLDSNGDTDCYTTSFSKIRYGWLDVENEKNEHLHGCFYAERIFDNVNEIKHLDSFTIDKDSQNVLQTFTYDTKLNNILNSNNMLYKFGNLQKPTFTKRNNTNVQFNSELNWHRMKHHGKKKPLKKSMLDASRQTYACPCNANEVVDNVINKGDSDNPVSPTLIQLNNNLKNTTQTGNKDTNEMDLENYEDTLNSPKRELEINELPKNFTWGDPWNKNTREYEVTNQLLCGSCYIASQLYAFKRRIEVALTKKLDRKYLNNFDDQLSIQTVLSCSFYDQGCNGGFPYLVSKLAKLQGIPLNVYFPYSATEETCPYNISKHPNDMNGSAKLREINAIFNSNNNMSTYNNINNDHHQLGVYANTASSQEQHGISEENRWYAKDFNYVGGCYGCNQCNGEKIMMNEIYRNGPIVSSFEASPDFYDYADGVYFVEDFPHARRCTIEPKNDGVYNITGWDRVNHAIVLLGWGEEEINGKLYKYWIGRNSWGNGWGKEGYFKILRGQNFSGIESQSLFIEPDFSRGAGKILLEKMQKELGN
row,Compound,% Inhibition @ 10 uM
1,O=S(=O)(Nc1nc2c(s1)CCCC2)c1cc(Cl)ccc1Cl,-3.49%
2,O=C(Cn1cc(SCc2ccccc2Cl)c2ccccc21)N1CCCC1,0.0147%
3,Cc1ccccc1C(=O)N(Cc1ccccc1F)C1CCS(=O)(=O)C1 (stereo not shown),-1.35%
4,N#Cc1c(N)n(-c2ccccc2O)c2nc3cc([N+](=O)[O-])c([N+](=O)[O-])cc3nc12,-0.0372%
5,O=C1C2CCCN2C(c2cccc(Br)c2)N1c1nccs1 (stereo not shown),-4.14%
6,Cc1cc(C)c2c(-n3cccc3)c(C(=O)NCCCN3CCOCC3)sc2n1,-2.85%
7,O=C(c1ccc(C(F)(F)F)cc1)N1CCN(c2ccccc2)CC1,-6.65%
8,C#CCCCNc1nc(Cl)cn(-c2ccccc2)c1=O,3.05%
9,CCn1c(-c2ccccc2)nc2ncccc2c1=O,-0.553%
10,CN(C(=O)Cc1ccccc1)N(C)C(=O)Cc1ccccc1,2.38%
11,COc1cc2ncn(C)c2cc1OC,-2.36%
12,COc1ccc(CC(=O)Nc2ccccc2C(=O)NC2CCCCC2)cc1,-5.34%
13,CCOc1ccc(C(=O)Nc2cccc(Cl)c2)cc1Cl,-1.63%
14,Cc1ccc(C2C(C(=O)O)c3ccccc3C(=O)N2C)o1 (stereo not shown),1.08%
15,COc1cc(-c2nnc(SCC(=O)N3CCCC3)o2)cc(OC)c1OC,28%
16,Fc1ccc(Nc2nc(-c3ccc(Br)cc3)cs2)cc1,-0.771%
17,Cc1cc(-c2ccc(C)o2)c(C#N)c(SCC(=O)c2ccccc2)n1,-6.11%
18,Cc1ccc(-c2c(N3CCCCC3C)c(=O)c2=O)cc1C (stereo not shown),-2.87%
19,CCOC(=O)N1CCC(N2C(=O)c3cc(C(=O)NC4CCCCC4)ccc3C2O)CC1 (stereo not shown),0.809%
20,CCOC(=O)N1CCC(NC(=O)CCc2nc(C3=CCN(C)CC3)no2)CC1,0.655%
21,CCCCN(C)C(=O)Cn1cc(S(=O)(=O)NC)c(S(=O)(=O)NC)c1,0.186%
22,CC(=O)c1ccc(N2CCN(C3CCN(C)CC3)CC2)cc1,3.18%
23,O=C(c1ccccc1)N1CCCC2CCC(O)CC21 (stereo not shown),-1.91%
24,COc1cc(C(=O)NCCCc2nc3ccccc3n2Cc2ccccc2F)cc(OC)c1OC,5.4%
25,COC(=O)C1=CN(CC2CCCO2)C=C(C(=O)OC)C1c1ccccc1C(F)(F)F (stereo not shown),-1.47%
26,Cc1ccc2c(c1)-c1onc(C(=O)NC(C)CCc3ccco3)c1CO2 (stereo not shown),-1.4%
27,Nc1c(Cl)c(Cl)c(N)c2nccnc12,-1.29%
28,N#Cc1ccccc1Cn1c(=O)n(Cc2ccccn2)c(=O)c2sc3ccccc3c21,2.04%
